Measured values reported in PubChem BioAssay AID1030 (National Center for Advancing Translational Sciences (NCATS), 2008).
About 16,000 (7.3%) of roughly 220,000 compounds were called active. The inconclusive results got no clear call from the source; some entries with a clear call stand among them for comparison. Calls follow the shape of the dose curve; as a rule, active = well fitted inhibition curve with a large enough effect (not every such curve was filed as active); inconclusive = small, poorly fitted or top-dose-only effect, or another doubt; inactive = no such curve, though single readings can be large or run the other way. No potency is given beside an inconclusive call; the fits are too rough.
Potency is read from the fitted curve at half-maximal effect; tags tell the direction and shape of the fitted curve.

What follows are compounds tested against Aldehyde dehydrogenase 1A1 (Homo sapiens) (UniProt P00352) (assay: qHTS Assay for Inhibitors of Aldehyde Dehydrogenase 1 (ALDH1A1)). Settings: Purified ALDH1A1, NADH fluorescence, propionaldehyde substrate; series mostly up to 75.3 µM.
Sequence of UniProt P00352 (P00352 whole entry, looked up): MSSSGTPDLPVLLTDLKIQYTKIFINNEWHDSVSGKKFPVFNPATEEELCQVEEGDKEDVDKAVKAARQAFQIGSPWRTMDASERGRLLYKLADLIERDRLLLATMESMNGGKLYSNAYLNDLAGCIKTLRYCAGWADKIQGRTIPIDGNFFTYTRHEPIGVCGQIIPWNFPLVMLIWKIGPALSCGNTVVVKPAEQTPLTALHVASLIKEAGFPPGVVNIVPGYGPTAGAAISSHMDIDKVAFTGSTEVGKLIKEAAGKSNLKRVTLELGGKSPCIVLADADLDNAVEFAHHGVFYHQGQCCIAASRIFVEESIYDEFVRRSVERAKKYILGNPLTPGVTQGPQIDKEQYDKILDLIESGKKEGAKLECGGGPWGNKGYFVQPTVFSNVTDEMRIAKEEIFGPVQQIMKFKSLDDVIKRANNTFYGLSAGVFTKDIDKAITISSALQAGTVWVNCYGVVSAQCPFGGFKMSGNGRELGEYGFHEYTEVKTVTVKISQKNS
With `Cc1cc(Cl)ccc1N(CC(=O)NCCSCc1ccco1)S(C)(=O)=O` the Potency was active: 12.6 µM.
With `COc1cc(CN2CCN(Cc3ccc([N+](=O)[O-])cc3)CC2)c([N+](=O)[O-])cc1OC` the Potency was active: 35.5 µM.
With `C[n+]1cc2c3c(ccc2c2ccc4cc5c(cc4c21)OCO5)OCO3` the Potency was “inactive”.
For `COc1cnc(-c2ccccc2)nc1Oc1ccccc1C`, the Potency was inconclusive [inhibitor, single point].
For `O=C(Cn1cnc2c(cnn2-c2ccc(Cl)cc2)c1=O)NCCc1ccccc1`, the Potency was “inactive”.
With `Cc1cc(C)cc(NC(=O)c2ccc([N+](=O)[O-])o2)c1` the Potency was “inactive”.
In the case of `O=C(CCn1cnc2ccccc21)N/N=C/c1ccc(O)cc1`, the Potency was inconclusive [inhibitor, partial curve, poor fit].
`O=C(Nc1ccc(Oc2ccc3ccccc3c2)cc1)c1ccco1` was tested, and the Potency was “inactive”.
For `Cn1c(=O)c(-c2ccc(F)c(F)c2)nc2cncnc21`, the Potency was inconclusive [inhibitor, single point].
For `CC(=O)c1ccc(NC(=O)OCCN2CCN(Cc3ccccc3)CCC2=O)cc1`, the Potency was “inactive”.
With `COc1cc(SC)ccc1C(=O)Nc1cc(C)ccn1` the Potency was active: 22.4 µM.
In the case of `CC(NC(=O)OCc1ccccc1)C(=O)N1CC(O)CC1C(=O)O` (stereo not drawn), the Potency was “inactive”.
For `COc1ccc2c(c1)OCC(Cc1ccc(O)c(OC)c1)C2=O` (stereo not drawn), the Potency was inconclusive [inhibitor, full curve].
For `O=C(COC(=O)COc1ccc(Cl)cc1Cl)Nc1cccnc1Cl`, the Potency was “inactive”.
`COc1cc(C(=O)OCc2ccc([N+](=O)[O-])cc2)cc(OC)c1OC` was tested, and the Potency was “inactive”.
In the case of `C=CCOc1ccc2nnc(C)n2n1`, the Potency was inconclusive [inhibitor, single point].
For `O=C(O)CCCN=CC1=C(O)C(C(=O)c2ccccc2)CCC1=O` (stereo not drawn), the Potency was inconclusive [inhibitor, single point].
`CCOc1ccccc1CNc1ccc(O)cc1` was tested, and the Potency was inconclusive [inhibitor, single point].
For `CN(C)c1ccc(-c2cc(Nc3ccc(F)cc3)ncn2)cc1`, the Potency was inconclusive [inhibitor, partial curve].
In the case of `COc1cc(/C=N/NC(=O)CCc2n[nH]c(=O)[nH]c2=O)cc(OC)c1OC`, the Potency was inconclusive [inhibitor, single point].
With `O=C(Nc1nnc(-c2ccco2)o1)c1ccc([N+](=O)[O-])s1` the Potency was inconclusive [inhibitor, single point].
In the case of `Cc1[nH]c2ccccc2c1C(=O)CSc1ccccc1`, the Potency was “inactive”.
With `COC(=O)c1ccc(N)cc1O` the Potency was “inactive”.
